Experimental findings from the supplement of paper PMC4967469 are described below.

A word on the IC50: it is the point on the concentration scale where inhibition reaches its midpoint.

Common to all, as to assay: Viability of human cancer cell lines after 72 h of drug (GDSC screen)
Compound in one assay: CCc1cc(Nc2nccc(-c3c(-c4ccc(OC)c(C(=O)Nc5c(F)cccc5F)c4)nc4ccccn34)n2)c(OC)cc1N1CCC(N2CCN(S(C)(=O)=O)CC2)CC1 [GSK-1904529A]
The settings on record: top dose 1.024 µM; top dose inferred. The procedure: (§1)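 Human cancer cell lines in 384-well plates, medium with 10% serum, drug for 72 h over a 256-fold dose range (nine 2-fold or five 4-fold steps up to the top dose). Adherent lines were fixed and stained with the nucleic acid dye Syto60, suspension lines read with resazurin; signal relative to control wells, capped at 0 and 100%. One two-parameter sigmoid per drug and line, fitted in a mixed model over all curves with the slope shared within a line.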

Compound in another assay: Cn1cncc1[C@@](N)(c1ccc(Cl)cc1)c1ccc2c(c1)c(-c1cccc(Cl)c1)cc(=O)n2C [Tipifarnib]
The settings on record: top dose 16 µM; top dose inferred. The procedure: as §1

Compound in the next assay: COc1ccccc1S(=O)(=O)Nc1ccc2c(c1)CN(C)C(=O)N2 [PFI-1]
As to conditions: top dose 10 µM; top dose inferred. The procedure:
as §1

Compound in a further assay: COc1cc(C)c(Sc2cnc(NC(=O)c3ccc(CNC(C)C(C)(C)C)cc3)s2)cc1C(=O)N1CCN(C(C)=O)CC1 [BMS-509744]
As to conditions: top dose 10.24 µM; top dose inferred. The procedure: as §1

Compound in the next assay: CCN1CCN(Cc2ccc(NC(=O)c3ccc(C)c(Oc4ccnc5[nH]ccc45)c3)cc2C(F)(F)F)CC1 [NG-25]
As to conditions: top dose 10.24 µM; top dose inferred. The procedure: as §1

Lines with a small IC50 respond at low doses; where the fit passes the top or lowest dose, that dose stands as a limit. AUC, from the same fit, is the share of area under the viability curve across the 256-fold dose range; the more sensitive the line, the further below 1. A top dose marked as inferred was calculated from the reported fits. Some results are limits rather than exact numbers.

Regarding EC-GI-10 (oesophagus, adherent), the AUC with GSK-1904529A is 0.989; with Tipifarnib it was 0.989; with PFI-1, 0.896; with BMS-509744, 0.989; with NG-25, 0.97. In addition, the IC50 was more than 1.02 µM in the assay with GSK-1904529A; more than 16 µM with Tipifarnib; more than 10 µM in the assay with PFI-1; more than 10.2 µM in the assay with BMS-509744; more than 10.2 µM with NG-25.

As to SCH (stomach, adherent), the AUC with GSK-1904529A was 0.988; with Tipifarnib, 0.988; with PFI-1 it was 0.98; with BMS-509744, 0.985; in the assay with NG-25, 0.908. Moreover, the IC50 was more than 1.02 µM in the assay with GSK-1904529A; more than 16 µM with Tipifarnib; more than 10 µM with PFI-1; more than 10.2 µM with BMS-509744; more than 10.2 µM with NG-25.

As for WIL2-NS (lymphoid neoplasm, suspension), the AUC is 0.992 with GSK-1904529A; 0.761 with Tipifarnib; 0.825 with PFI-1; 0.934 with BMS-509744; 0.808 with NG-25. The IC50 in the assay with GSK-1904529A is more than 1.02 µM; with Tipifarnib, 4.71 µM; with PFI-1, 4.58 µM; with BMS-509744, more than 10.2 µM; with NG-25 it was 4.15 µM.

As for “KG-1 (acute myeloid leukaemia, suspension)”, the AUC turned out to be 0.989 with GSK-1904529A; 0.683 with Tipifarnib; 0.771 with PFI-1; 0.967 with BMS-509744; 0.464 in the assay with NG-25. The IC50 with GSK-1904529A was more than 1.02 µM; with PFI-1, 3.44 µM; in the assay with BMS-509744 it was more than 10.2 µM; with NG-25 it was 0.515 µM.

As for KM12 (large intestine, adherent), the AUC with GSK-1904529A is 0.948; with Tipifarnib, 0.245; with PFI-1, 0.97; with BMS-509744, 0.678; with NG-25, 0.923. For the same cell line, the IC50 with GSK-1904529A was more than 1.02 µM; in the assay with Tipifarnib it was 0.171 µM; with PFI-1, more than 10 µM; with BMS-509744 it was 2.11 µM; with NG-25 it was more than 10.2 µM.

On to SF268 (glioma, adherent), for which the AUC was found to be 0.981 with GSK-1904529A; 0.723 in the assay with Tipifarnib; 0.89 in the assay with PFI-1; 0.864 with BMS-509744; 0.801 in the assay with NG-25. For the same cell line, the IC50 is more than 1.02 µM in the assay with GSK-1904529A; 4.54 µM with Tipifarnib; more than 10 µM in the assay with PFI-1; 10.1 µM with BMS-509744; 5.45 µM with NG-25.

Consider L-363 (myeloma, suspension), for which the AUC in the assay with GSK-1904529A was 0.983; with Tipifarnib, 0.849; with PFI-1 it was 0.683; with BMS-509744, 0.814; with NG-25 it was 0.877. In addition, the IC50 with GSK-1904529A was more than 1.02 µM; in the assay with Tipifarnib it was 9.65 µM; in the assay with PFI-1 it was 1.87 µM; with BMS-509744, 4.65 µM; with NG-25, 7.9 µM.

“DMS-79 (small cell lung carcinoma, suspension)”: the AUC with GSK-1904529A stood at 0.987; with Tipifarnib, 0.931; with PFI-1, 0.985; with BMS-509744, 0.985; in the assay with NG-25, 0.927. Besides, the IC50 with GSK-1904529A is more than 1.02 µM; with Tipifarnib, more than 16 µM; with PFI-1, more than 10 µM; with BMS-509744 it was more than 10.2 µM; in the assay with NG-25 it was more than 10.2 µM.

As to TGW (neuroblastoma, adherent), the AUC is 0.992 with GSK-1904529A; 0.847 with Tipifarnib; 0.975 in the assay with PFI-1; 0.911 in the assay with BMS-509744; 0.801 with NG-25. The IC50 was more than 1.02 µM with GSK-1904529A; 9.39 µM in the assay with Tipifarnib; more than 10 µM in the assay with PFI-1; more than 10.2 µM with BMS-509744; 4.21 µM with NG-25.

Consider DEL (lymphoid neoplasm, suspension), for which the AUC with GSK-1904529A is 0.994; with Tipifarnib, 0.521; with PFI-1, 0.953; with BMS-509744, 0.924; in the assay with NG-25 it was 0.883. Besides, the IC50 is more than 1.02 µM with GSK-1904529A; 1.13 µM with Tipifarnib; more than 10 µM in the assay with PFI-1; more than 10.2 µM with BMS-509744; 7.05 µM with NG-25.

On to “NCI-H1770 (non-small cell lung carcinoma, suspension)”, for which the AUC with GSK-1904529A was determined as 0.992; with Tipifarnib it was 0.777; with PFI-1 it was 0.976; with BMS-509744, 0.954; in the assay with NG-25, 0.957. The IC50 in the assay with GSK-1904529A is more than 1.02 µM; with Tipifarnib, 5.62 µM; with PFI-1 it was more than 10 µM; in the assay with BMS-509744, more than 10.2 µM; in the assay with NG-25, more than 10.2 µM.

As to SW684 (fibrosarcoma, adherent), the AUC with GSK-1904529A came to 0.951; in the assay with Tipifarnib, 0.949; with PFI-1, 0.921; with BMS-509744 it was 0.933; with NG-25, 0.983. The IC50 with GSK-1904529A was more than 1.02 µM; in the assay with Tipifarnib, more than 16 µM; with PFI-1 it was more than 10 µM; with BMS-509744, more than 10.2 µM; in the assay with NG-25, more than 10.2 µM.

In the case of “NCI-H2081 (small cell lung carcinoma, suspension)”, the AUC in the assay with GSK-1904529A came out at 0.989; in the assay with Tipifarnib, 0.945; in the assay with PFI-1, 0.982; with BMS-509744, 0.977; with NG-25 it was 0.948. Also, the IC50 with GSK-1904529A was more than 1.02 µM; with Tipifarnib, more than 16 µM; in the assay with PFI-1, more than 10 µM; with BMS-509744, more than 10.2 µM; with NG-25 it was more than 10.2 µM.
